Our source for the cell count values is the supplement of paper PMC4604168 (melanoma cell lines).

What all share (test): cell count relative to DMSO control; melanoma cells; higher = more viable cells
Conditions in all cases: library dose: standard library concentration; 72 h

In assay [1] the test system is A101D.
For assay [2], the system named is A2058.
Assay [3] concerns A375.

This is one part of the list. Most values come without repeats; read them as rough.
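Further: cells treated in 1,536-well plates, then fixed and DAPI-stained, with nuclei counted from automated high-throughput microscope images.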

Consider `N#CC[C@H](C1CCCC1)n1cc(-c2ncnc3[nH]ccc23)cn1` [ruxolitinib] + CCCS(=O)(=O)Nc1ccc(F)c(C(=O)c2c[nH]c3ncc(Cl)cc23)c1F [PLX4720] (first compound 5 µM, partner dose 0.4 µM), for which the cell count in assay [1] amounted to 80%; in assay [2], 100%; in assay [3] it was 107%.
Taken in the same sequence, the figures for `CC[C@]1(O)C[C@H]2CN(CCc3c([nH]c4ccccc34)[C@@](C(=O)OC)(c3cc4c(cc3OC)N(C=O)[C@H]3[C@@](O)(C(=O)OC)[C@H](OC(C)=O)[C@]5(CC)C=CCN6CC[C@]43[C@@H]65)C2)C1` [vincristine] + Cn1sc(=O)n(Cc2ccccc2)c1=O [TDZD-8] (first compound 0.0005 µM, partner dose 2 µM) were 67.9%, 89% and 104%.
The corresponding values for `CC[C@]1(O)C[C@H]2CN(CCc3c([nH]c4ccccc34)[C@@](C(=O)OC)(c3cc4c(cc3OC)N(C=O)[C@H]3[C@@](O)(C(=O)OC)[C@H](OC(C)=O)[C@]5(CC)C=CCN6CC[C@]43[C@@H]65)C2)C1` [vincristine] + C[C@]1(O)C[C@@H](c2nc(-c3ccc4ccc(-c5ccccc5)nc4c3)c3c(N)nccn32)C1 [OSI906] (first compound 0.0005 µM, partner dose 2 µM) are 66.8%, 22.4% and 66.8%.
Taken in the same sequence, the figures for `N#CC[C@H](C1CCCC1)n1cc(-c2ncnc3[nH]ccc23)cn1` [ruxolitinib] + Cn1cncc1[C@@](N)(c1ccc(Cl)cc1)c1ccc2c(c1)c(-c1cccc(Cl)c1)cc(=O)n2C [tipifarnib] (first compound 5 µM, partner dose 0.05 µM) were 107%, 53.4% and 147%.
As to `N#CC[C@H](C1CCCC1)n1cc(-c2ncnc3[nH]ccc23)cn1` [ruxolitinib] + CNC(=O)c1cc(Oc2ccc(NC(=O)Nc3ccc(Cl)c(C(F)(F)F)c3)cc2)ccn1 [sorafenib] (first compound 5 µM, partner dose 2 µM), the cell count in assay [2] came out at 81.8%; in assay [3], 169%.
For `N#CC[C@H](C1CCCC1)n1cc(-c2ncnc3[nH]ccc23)cn1` [ruxolitinib] + CC(C)(C)c1cnc(CSc2cnc(NC(=O)C3CCNCC3)s2)o1 [SNS-032] (first compound 5 µM, partner dose 0.05 µM), the cell count in assay [1] came to 88.3%; in assay [2], 64.3%; in assay [3] it was 121%.
For `N#CC[C@H](C1CCCC1)n1cc(-c2ncnc3[nH]ccc23)cn1` [ruxolitinib] + CC1(C)CCC(c2ccc(Cl)cc2)=C(CN2CCN(c3ccc(C(=O)NS(=O)(=O)c4ccc(N[C@H](CCN5CCOCC5)CSc5ccccc5)c(S(=O)(=O)C(F)(F)F)c4)cc3)CC2)C1 [ABT263] (first compound 5 µM, partner dose 2 µM), the cell count in assay [1] came to 57.1%; in assay [2] it was 80.5%; in assay [3] it was 100%.
The corresponding values for `Cc1cc(Nc2cc(N3CCN(C)CC3)nc(Sc3ccc(NC(=O)C4CC4)cc3)n2)n[nH]1` [Tozasertib] + CC(C)(C)c1cnc(CSc2cnc(NC(=O)C3CCNCC3)s2)o1 [SNS-032] (first compound 0.03 µM, partner dose 0.05 µM) are 84.7%, 74.8% and 92.4%.
On to `CC[C@]1(O)C[C@H]2CN(CCc3c([nH]c4ccccc34)[C@@](C(=O)OC)(c3cc4c(cc3OC)N(C=O)[C@H]3[C@@](O)(C(=O)OC)[C@H](OC(C)=O)[C@]5(CC)C=CCN6CC[C@]43[C@@H]65)C2)C1` [vincristine] + CCCCCCCCCCCCCCCCCCOP(=O)([O-])OC1CC[N+](C)(C)CC1 [Perifosine] (first compound 0.0005 µM, partner dose 2 µM), for which the cell count in assay [1] amounted to 65.1%; in assay [2] it was 97.1%; in assay [3], 74.9%.
The corresponding values for `CC[C@]1(O)C[C@H]2CN(CCc3c([nH]c4ccccc34)[C@@](C(=O)OC)(c3cc4c(cc3OC)N(C=O)[C@H]3[C@@](O)(C(=O)OC)[C@H](OC(C)=O)[C@]5(CC)C=CCN6CC[C@]43[C@@H]65)C2)C1` [vincristine] + C[C@]1(c2nc3c(C(N)=O)cccc3[nH]2)CCCN1 [Veliparib] (first compound 0.0005 µM, partner dose 7 µM) are 33.9%, 10.8% and 82.6%.
Taken in the same sequence, the figures for `CC[C@]1(O)C[C@H]2CN(CCc3c([nH]c4ccccc34)[C@@](C(=O)OC)(c3cc4c(cc3OC)N(C=O)[C@H]3[C@@](O)(C(=O)OC)[C@H](OC(C)=O)[C@]5(CC)C=CCN6CC[C@]43[C@@H]65)C2)C1` [vincristine] + O=C(O)c1ccc2c(c1)nc(Nc1cccc(Cl)c1)c1ccncc12 [CX4945] (first compound 0.0005 µM, partner dose 2 µM) were 72.6%, 85.9% and 78.7%.
